The values below come from PubChem BioAssay AID463173 (ICCB-Longwood Screening Facility, Harvard Medical School, 2010).

SMILES strings stand for the structures. The whole screen tested about 52,000 compounds, of which about 1,700 (3.3%) were called active. Rule as the data show it: active = survival mostly below about 52% (no sharp cut-off); inactive = mostly above about 56%. The list shows a part of the results.

The subject of this assay is Wild type. The assay can be described thus: growth inhibition of S. aureus wild type versus tarO mutant, primary screen, teichoic acid synthesis inhibitors, RN4220, OD600 (AID 463173). Particulars: S. aureus RN4220 wild type/DeltatarO growth, OD600, 18 h, hits give low values, screened at 18.75 µg/mL (by protocol).
For `CCCSC1=NC2(CCN(C(=O)NC3CCCCC3)CC2)N=C1c1ccccc1`, the survival is inactive: 94%.
Under `NC(=S)NN1N=C(c2ccccc2)CC1=O` stands inactive: 109%.
Under `CCCSc1ncc(Cl)c(C(=O)Nc2sc3c(c2C(=O)NCC)CCCC3)n1` stands inactive: 85%.
`CC(C)c1nnc(NC(=O)c2nc(SCc3ccc(F)cc3)ncc2Cl)s1`: the survival was inactive: 58%.
The figure for `Cc1ccc2[nH]c(=O)c(CN(Cc3cccnc3)S(=O)(=O)c3ccccc3)cc2c1` is inactive: 102%; for `CC(C)(C)Sc1ccc(SC#N)s1` it is active: 23%.
The figure for `CSc1ncc(Cl)c(C(=O)Nc2nc3ccc(F)cc3s2)n1` is inactive: 92%; for `COc1cccc(NC(=O)CN(Cc2ccccc2)S(=O)(=O)c2ccc3nc(C)sc3c2)c1` it is inactive: 118%.
In the case of `Cc1nn(CCCC(=O)NCc2cccc(F)c2)c(=O)c2nn(-c3ccccc3)c(C)c12`, the survival is inactive: 84%.
The figure for `COc1ccc(OC)c(-c2nc(C(N)=O)c3c(n2)n(-c2ccc4c(c2)OCO4)c(=O)n3C)c1` is inactive: 71%; for `CCOc1ccc(CNCc2c(C(=O)O)c(C)n(Cc3ccc(F)cc3Cl)c2C)cc1` it is inactive: 144%; for `C#CCOc1nc(OCC#C)nc(N(c2ccccc2)c2ccccc2)n1` it is inactive: 110%.
For the compound `CCN1CCN(C(=O)c2ccc3c(c2)N(Cc2ccccc2)C(=O)c2ccccc2S3=O)CC1` (centres undefined), the survival is inactive: 92%.
The figure for `CN1C(=O)SC(Nc2ccccc2)C1=O` (centres undefined) is inactive: 95%.
The figure for `CN(C)c1ccc(-c2nnc(-c3ccc(S(=O)(=O)C(F)F)cc3)o2)cc1` is inactive: 103%; for `CCCCc1nn2c(=O)cc(COC(=O)c3cccc(NC(=O)c4cccc(C)c4)c3)nc2s1` it is inactive: 80%; for `CCOC(=O)c1c(S(=O)(=O)NCC(=O)Nc2ccc(Cl)c(C(F)(F)F)c2)c(C)n(C)c1C` it is inactive: 83%.
The figure for `Cc1ccc(CN2CCCn3nc(C(=O)NCc4ccccc4Cl)cc3C2=O)cc1` is inactive: 69%; for `Cc1ccc(NC(=O)CN(C)S(=O)(=O)c2ccc3c(c2)CCC(=O)N3)c(C)c1` it is inactive: 76%; for `COc1ccccc1C(=O)c1c(N)c(-c2nc(-c3ccccc3)cs2)c2ccccn12` it is inactive: 105%.
In the case of `CCCCN(CC)C(=O)CCn1c(=O)c2cccn2c2cccnc21`, the survival was inactive: 81%.
Under `Cc1ccc(NC(=O)Cn2nc(-c3ccc(F)cc3)c3cnc4ccc(C)cc4c32)cc1` stands inactive: 130%.
The figure for `CCCN1CCN(c2ncc3c(n2)CCN(Cc2ccc(OC)c(OC)c2OC)C3)CC1` is inactive: 59%; for `COc1ccccc1-c1noc(-c2ccc(N(C)Cc3ccccc3)c([N+](=O)[O-])c2)n1` it is inactive: 79%; for `CCCCNC(=O)CN1C(=O)CSc2ccc(S(=O)(=O)N3CCC(C)CC3)cc21` it is inactive: 92%.
Under `CC(=O)c1cccc(N(C(=O)Cn2nnc3ccccc32)C(C(=O)NCc2ccccc2)c2ccc(F)cc2)c1` (centres undefined) stands inactive: 106%; under `O=C(NCc1cccc(Cl)c1)c1cnc(N2CCCCC2)c2ccccc12`, inactive: 89%.
For `COc1ccc(CCNC(=O)Cn2c(=O)c3sccc3n(CC(=O)Nc3cccc(C(F)(F)F)c3)c2=O)cc1OC`, the survival was inactive: 72%.
The figure for `COc1ccc(Cl)cc1NC(=O)C(OC)c1ccccc1` (centres undefined) is inactive: 109%.
Under `Cc1cccc(N2CCN(c3ncnc4onc(C)c34)CC2)c1C` stands inactive: 84%.
For the compound `COC(=O)c1cccc(Nc2c(-c3ccc(SC)cc3)nc3nc[nH]n23)c1`, the survival was inactive: 82%.
The figure for `CCc1ccc(C2N=C(N)Nc3nc4ccccc4n32)cc1` (centres undefined) is inactive: 92%; for `Cc1ccc(-n2ncc(C(=O)NCCc3ccsc3)c2C2CCN(C(=O)OC(C)(C)C)CC2)c(C)c1` it is inactive: 73%; for `COc1ccc(Cl)cc1NC(=O)CN(c1cccc(C)c1C)S(C)(=O)=O` it is inactive: 91%.
Under `O=C(CCCCCn1c(=O)[nH]c2ccccc2c1=O)NCCc1ccccc1` stands inactive: 92%; under `Cc1cccc(S(=O)(=O)c2cn(Cc3ccc(F)cc3)c3cc(N4CCCCC4)c(F)cc3c2=O)c1`, active: -4%.
The figure for `Cc1ccc2c(c1)cc(CN(Cc1ccco1)C(=O)NCc1ccccc1)c1nnnn12` is inactive: 102%.
As for `COc1cc(C(=O)NN)ccc1-c1ccc(C(=O)NN)cc1`, the survival was inactive: 111%.
`O=C(CSc1nc2c([nH]c3ccccc32)c(=O)n1-c1ccc(Cl)cc1)NCc1ccccc1`: the survival was inactive: 60%.
The figure for `CCc1ccc(CNC(=O)CN2C(=O)CSc3ccc(S(=O)(=O)N4CCOCC4)cc32)cc1` is inactive: 82%.
As for `COc1cccc(C(=O)N(Cc2ccc(N(C)C)cc2)Cc2ccco2)c1`, the survival was inactive: 86%.
The figure for `CC1=C(C(=O)Nc2cc(Cl)ccc2C)C(c2ccccc2F)n2ncnc2N1` (centres undefined) is inactive: 78%.
Under `CN1CCN(C(CNC(=O)C(=O)Nc2ccccc2C#N)c2ccc3c(c2)OCO3)CC1` (centres undefined) stands inactive: 75%; under `CCc1ccccc1NC(=O)c1cc(-c2ccc(OC)cc2)on1`, inactive: 100%; under `O=c1c(Cl)c(NCc2ccco2)cnn1Cc1ccccc1`, inactive: 115%.
Under `COc1ccc(C(=O)Cn2nnc(-c3ccccc3)n2)cc1` stands inactive: 109%.
In the case of `CCc1ccc(S(=O)(=O)NCc2cccn2Cc2cccc(C)c2)cc1`, the survival was inactive: 71%.
The figure for `COc1cc(C(=O)Nc2sc3c(c2C(N)=O)CCC(C)C3)cc(OC)c1OC` (centres undefined) is inactive: 76%; for `CCn1c(=O)c(=O)n(CC)c2cc(N3CCCCC3)c(NC(=O)c3ccc(OC)c(OC)c3)cc21` it is inactive: 84%; for `Cc1ccc2sc(N(CCCN(C)C)C(=O)c3ccco3)nc2c1C` it is inactive: 121%.
Regarding `COc1ccc(CCNC(=O)CSc2cc(=O)n(C)c3ccccc23)cc1OC`, the survival was inactive: 75%.
Under `COC(=O)c1ccc(NC(=O)CC2C(=O)N(c3cccc(F)c3)C(=O)N2CC(C)C)cc1` (centres undefined) stands inactive: 77%; under `CCCNC(=O)C1CCC(Cn2c(=O)c3sccc3n(CC(=O)N(CC)CC)c2=O)CC1` (centres undefined), inactive: 128%; under `COc1cccc(/C=N/NC(=O)c2ccccc2O)c1`, inactive: 100%.
Take `COc1ccc(NC(=O)Cn2nnnc2-c2ccccc2F)c(C)c1`: the survival is inactive: 95%.
Take `Cc1ccc(-n2nc(C(=O)N3CCCCC3)c(=O)n(C)c2=O)cc1`: the survival is inactive: 64%.
The figure for `CCCN(CCC)CCNC(=O)CS(=O)Cc1nc(-c2ccc(OC)c(OC)c2)oc1C` (centres undefined) is inactive: 91%.
For `CC(=O)Nc1ccc(S(=O)(=O)N2CCC(C)CC2)cc1`, the survival was inactive: 112%.
As for `COc1ccc(CN2C(=O)N(c3cccc(C)c3)C(=O)C2CC(=O)Nc2ccc(F)cc2)cc1OC` (centres undefined), the survival was inactive: 73%.
Take `COc1ccc(-n2c(=O)c3ccc(C(=O)NCc4ccc(C)cc4)cc3n(CC(=O)Nc3cccc(F)c3)c2=O)cc1`: the survival is inactive: 68%.
The figure for `Cc1ccc(CNC(=O)c2cc3cc(C)ccc3n2C)cc1` is inactive: 89%; for `CNc1ccc(-c2nc(-c3ccccn3)no2)cc1[N+](=O)[O-]` it is inactive: 89%.
As for `COc1cccc(C(=O)Nc2nc3c(s2)CCCC3)c1`, the survival was inactive: 116%.
Under `CN(Cc1ccccc1)C(=O)C(=O)Nc1ccc2nc3n(c(=O)c2c1)CCCCC3` stands inactive: 92%.
Under `CN(C(=O)C1CC1)c1nnc(-c2ccc(F)cc2)s1` stands inactive: 111%.
Under `CCOc1ccc(C2c3[nH]c4ccccc4c3CCN2C(=O)CSc2ccccc2)cc1` (centres undefined) stands inactive: 152%.
`COCCCNC(=O)Cn1c(=O)n(-c2ccccc2)c(=O)c2c1c1cc(OC)ccc1n2C`: the survival is inactive: 55%.
Turning to `CCOc1cc(CNCCSc2nnnn2C)ccc1OCc1ccc(Cl)cc1Cl`, the survival is active: -5%.
The figure for `Cc1ccc(NC(=O)CN2C(=O)COc3ccc(S(=O)(=O)N4CCCCC4)cc32)cc1Cl` is inactive: 93%; for `CCOC(=O)c1cc(NC(=O)c2ccc(C)cc2)c(=O)n2c1oc1ccccc12` it is inactive: 87%; for `CC(=O)Nc1ccc2nc(SCCOc3ccc(C)cc3)sc2c1` it is inactive: 95%.
Under `COc1ccc(Cn2c(SCc3ccc(C(=O)NC4CCCCC4)cc3)nc3cccnc32)cc1` stands inactive: 124%.
The figure for `COc1ccc(Nc2ncnc3scc(-c4ccc(F)cc4)c23)cc1` is inactive: 79%; for `CN1CCN(C(=O)C2C3C=CC(C3)C2C(=O)O)CC1` (centres undefined) it is inactive: 104%.
`COc1ccccc1-c1cc(C(F)(F)F)nc(S(=O)(=O)CCCC(=O)Nc2ccccc2F)n1`: the survival was inactive: 85%.
The figure for `CCc1c(CN2CCN(c3ccc(F)cc3)CC2)csc1C` is inactive: 75%.
The figure for `COc1ccc(NC(=O)c2sc3nc(C)c(C(=O)Nc4ccc(C)cc4C)c(-c4sccc4C)c3c2N)cc1` is inactive: 87%; for `O=C(COc1ccc(Cl)cc1)NCCc1csc(-c2ccc(C(F)(F)F)cc2)n1` it is inactive: 76%.
`COCCNc1nc2c(S(=O)(=O)c3ccccc3)nnn2c2ccc(Cl)cc12`: the survival was inactive: 81%.
The figure for `COc1cc2c(cc1NC(=O)COc1cc(C)cc(C)c1)oc1ccccc12` is inactive: 75%; for `COc1ccc(C)cc1Nc1nc2c(S(=O)(=O)c3cc(C)ccc3C)nnn2c2ccsc12` it is inactive: 89%.
`Cc1ccc(CN2CCC(CNC(=O)Nc3ccccc3F)CC2)cc1`: the survival was inactive: 118%.
The figure for `CN(C)c1ccc(C(=O)Nc2sc(Nc3ccccc3)nc2C(N)=O)cc1` is inactive: 88%; for `Cc1oc2c(cc(NS(=O)(=O)c3ccc(Br)cc3)c3ccccc32)c1C(=O)OCc1ccccc1` it is inactive: 72%; for `Cc1ccc(C(=O)COC(=O)CCc2nc3ccccc3[nH]c2=O)cc1C` it is inactive: 109%.
The figure for `COc1ccc(Cn2c(CCC(=O)Nc3ccc(Br)c(C)c3)nc3cccnc32)cc1` is inactive: 64%.
The figure for `CCCCCn1c(=O)[nH]c2cc(C(=O)N3CCN(c4ccc(OC)cc4)CC3)ccc2c1=O` is inactive: 142%; for `CCOC(=O)C1CCC(CN(Cc2ccc(OC)cc2)S(=O)(=O)c2ccc(C)cc2)CC1` (centres undefined) it is inactive: 71%.
Take `NNc1ncccc1C(=O)O`: the survival was inactive: 95%.
